In the supplement of paper PMC8728848:
This excerpt belongs to a sample that is enriched for the strongest signals.

These substances were tested on Gal(b1-4)GlcNAc(b1-3)Gal(b1-4)[Fuc(a1-3)]GlcNAc(b1-3)Gal(b1-4)[Fuc(a1-3)]GlcNAc (assay: glycan array binding signal (z-score within array); higher = stronger binding). Conditions: glycan notation: IUPAC condensed, linker removed.
Summary of the method: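 The binding signal is a Z-score computed within each array. Data were drawn from 3228 arrays in the Consortium for Functional Glycomics database, restricted to those with a known protein sequence. Scores were averaged over arrays of the same protein sequence at different concentrations or buffers, and over linkers, and negative values can be taken as non-binding.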

| Substance | glycan array binding signal (z-score) |
| --- | --- |
| CLEC-2 (Homo sapiens) (chain not printed) | -0.011 |
| M-Ficolin G221F A256V (Homo sapiens) (chain not printed) | -0.269 |
| NCAM1 (Homo sapiens) (chain not printed) | -0.61 |
| H-Ficolin (Homo sapiens) (chain not printed) | -0.097 |
